Reference: the supplement of paper PMC12632987
Whole data set: some 1,800 sequences, median “median log2 fold change of GCK-ALFA target abundance (FLAG IP / Myc IP barcode read proportion)” near 0.14, cut for the lowest 2% near -0.84. This is one part of the list.

T1: TRAF2, Q12933
T1 chain: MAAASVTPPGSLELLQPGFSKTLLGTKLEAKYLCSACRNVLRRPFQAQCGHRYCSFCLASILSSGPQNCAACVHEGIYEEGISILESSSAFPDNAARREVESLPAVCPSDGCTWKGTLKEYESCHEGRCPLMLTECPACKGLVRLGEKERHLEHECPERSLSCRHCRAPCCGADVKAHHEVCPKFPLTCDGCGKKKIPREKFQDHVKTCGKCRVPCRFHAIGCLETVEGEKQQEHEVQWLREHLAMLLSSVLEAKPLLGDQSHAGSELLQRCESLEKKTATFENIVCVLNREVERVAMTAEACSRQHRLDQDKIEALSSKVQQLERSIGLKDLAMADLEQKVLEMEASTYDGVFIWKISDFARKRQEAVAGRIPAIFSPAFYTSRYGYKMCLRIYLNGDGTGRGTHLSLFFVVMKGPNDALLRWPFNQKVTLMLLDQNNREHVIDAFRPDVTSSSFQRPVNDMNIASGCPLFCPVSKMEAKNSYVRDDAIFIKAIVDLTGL

B1: traf2_out_11_131_665 (protein)
chain: MDAVAIAKSVAERVRERLEIAKTLSPEERHRLALRALDSIEAVAEYLTKHVDKMSKEDIEEAVKILRKTVEEIVALDPSVAPEAKEVLKALEKLEKAAKE
B2: traf2_out_3_89_2310 (protein)
chain: GAERERTIEEMRREMERYIRGFRKSAERVAKEMLEDGMSLETLRGVLEAAKSALLEVLRERMRERGLSEEEIEELLEEAGRELDKVVEEVVAEAEERRKA
B3: traf2_out_11_131_663 (protein)
chain: MDAVAIAESVAERVDERLELAKSLSPEERTRLAEQSLDTLEAVAEYLKKHVSEMSKEDIEKAVKILRESAEKILALDPSVAEQVEEVKKALEELLKEAEK
B4: traf2_out_16_104_1393 (protein)
chain: EEERKAEFEAIRKRLEEIAERAGRIANEAYKLYLKASPEKKKELSDLMVEASELRREALLAAQEVEEALRTGGDLEEAKKRLERLEKRLKEIEKKLEELK
B5: traf2_out_5_63_2367 (protein)
chain: SAREKERKELTEEAREAEKVVLEALKLSEEEAKKLVEEAIEKGLNVNLIAGMFRAHARFLRLQGGPEEEIEKAERLAEYARELGRRREAEAAAAAAAAAA
B6: traf2_out_17_162_1642 (protein)
chain: SMAEEFRERLEKKLEELEKKLEELKKKSEEIDKYSKEELSDLIVEASELRREARELIVEIEKNKELLDPEEYERLKKKAEEIAEELNRIAQKFYDKYLKL
B7: traf2_out_1_71_1752 (protein)
chain: SPEAEKAEKALEDMAKSIAEGMKTEEALERYLEAFRNHIKRVKALAKANKDDEAVKAGSIADLNLEAELLEKIAKYVDEESKKKLEELAKEAKKAAEEIK
B8: traf2_out_8_144_2542 (protein)
chain: HMSKREIANRLANALVKLDELIKEADEETKEILTKARRHVGQALNLVVFGGDKEEIIEELEKAIKYLEEAIKKVKDNPELKKKVQEIKKELEEILKDVKE
B9: traf2_out_12_187_958 (protein)
chain: SNREELLRAAEAGVAQALAALERRAPEHPAFRRLLERLRELAELMRRHPEIASDALVAASAILRAIRLFEAGADPALVEAALAAAERTLEEALARARELE
B10: traf2_out_11_79_936 (protein)
chain: EEKRQELLKKLEEALKLLKELLEKMKAGTISEEERKEMLDEIERLLQRAAQLALELGLSDTLVEISEAKRHVRLAYSGDLEALEKAIKELEEAIKLVEEA
B11: traf2_out_17_35_1755 (protein)
chain: MTPIEKEREIASEIADKILEESDKLNKELDKVYEETKDKKAVVDKTKEILDKYGIGEEEKELLDEHYKTGNDEEILAFSHELIRRAVGEKYGKKYAEALK
B12: traf2_out_5_63_2348 (protein)
chain: SEHAELTALARRADRLARAILEAAEAGKEEEAEKLIEEAVEDPELARLVIGILKGEAKYYELLGDQPEKAKLAKELAKELEKRLEEREAARAAAAAAAAA
B13: traf2_out_13_95_1036 (protein)
chain: SAELAKKINEIADKMLDEALALLDAAKKAHADNPEAVAVLDEAKRAAVTQGISEAIHILEQAKAANPEHAADFAALIAELKALREKAGKEVAKLIKEEKE
B14: traf2_out_17_162_1522 (protein)
chain: SALEERLAELEKRLEELEKKLKELEKKLENLEKMSKEELTDLLVEASEAKREALELAEELRRLRPLIGEERAGELIERAEEIAEKLQKIANKIYKELEKK
B15: traf2_out_13_95_1166 (protein)
chain: EEEKTKKEREIASEAFDKREEVAEDFRDRVLALIDDPEAAELMDEVVRNMNIYTLRHAGAELQARYPEKAAEIAALTDEAEARMREIDKETTKKLNEIEK
B16: traf2_out_18_54_1950 (protein)
chain: ARLEALRAEARAVIDEWTAAVLALVADNPEIQAMVEEARARVLAALDTEGLWAAVTTFRRLSAEIIAAIEDPEVADAVGDLAADARNRLAKLALEAERAE
B17: traf2_out_17_162_1550 (protein)
chain: AELERRLEELERELEEIEREVERLESLLPKLPEMSKEELTDLLVEASEVRRRALELAEEIRELAAEIGEERARELAERARELAERLQRIANKIYEELLKK
B18: traf2_out_11_183_893 (protein)
chain: KQEKINEATNEVVDRHERMRAEALALLRSLSARYADTDPELAAFYAEAAALIEAGSNVRVVLEEVAESLPPGPDKEEVEALLRRVREEQRRMGKILEEAE
B19: traf2_out_11_169_848 (protein)
chain: EEEEKNRKIIDKALELNDKAKEELRAHALALAKKAGLDTAAVEAIFEANKGKSLSAVAAALIAWFKAQGKDAEAAAVEAKYEELKEKINKEMTKFLKELE
B20: traf2_out_13_95_1212 (protein)
chain: EEEKTRKLREVTNEIADELIDFVEATADAIEAATGRADYRDEILATLRRNGVRAAVALIRRYAEADPEHAAVYRAAAAEAEAKIREAGKRFAEAEKEIEE
B21: traf2_out_11_169_883 (protein)
chain: EEKEKNRKFNDFALELNDEAKEKLKEFALKLAKELGLNEEEVKAIFEENKNKSLSYVASKLIEYFKEKGKEEAAKKVLEKYEELKDEINKKGTEKLKELE
B22: traf2_out_15_17_1306 (protein)
chain: EAERERNRRLAEAMNAVLDEAEARLAELEAEALKLAKEKGVEERVLKLLEESRDYSVRTRVLLLARLAKEEGWEELAKRAEELAEEIGRRASEAARAVEE
B23: traf2_out_16_177_1452 (protein)
chain: ELDKVMDRLVILSNLRRAALLAVEGKGDEYQEHLKRAREEAEEAGDEEGLKLAERIEELIAKNTPEAKEELKKLAEELQKEAQKLAEEAEKLIKERAEKE
B24: traf2_out_15_48_1352 (protein)
chain: STEKLRKTAREINDKIDETLDAVAERLRALLPELAPELQPLAEAAIETATRRTSINETIALLAEAAAKADPETQAKLTALRDELEATKKEASKLMNETLK
B25: traf2_out_14_149_1235 (protein)
chain: SHMAELFKAAAEMNRIAAEALEKALELLDKGEVEAAKKLLEETIKKLEEYGKEHGITTSIVFELEHILKLLDTDVEAAKEAAKRALERARSAAEAAESLA
B26: traf2_out_14_149_1237 (protein)
chain: SPEAKLFAAAAELNEKAAKALKEALKLIDEGKVEEAKKLLEKTIKELEEYGKKHGVTVSSVFELEHILKLLDEDVEAAKAAAEEAAKRAEDAADAARSLA
B27: traf2_out_11_155_732 (protein)
chain: EALRQAQREINDFALELGDELVEYVRELIERVEEEDPEAAEKLREVFEKHLKFSARSAARAVADLLRELGYEEEAEELEKRIEEANKKASEHVNEVEAKL
B28: traf2_out_9_108_2599 (protein)
chain: MTPLELADAAVDRVIGTVEEKVPEVKFSEETKANIRRTLHRVVELSEITNETTITSYVAAEVLLAARDLPKETLEKIAEVLIELDPSVKSTVERTLSLLK
B29: traf2_out_13_95_1101 (protein)
chain: SLELAKKIMEIADKMLEEAEKILEELLKKAKKAGVAEEEIQEALHLARTHSIREAIHKLKELAKEYPELKEELEEAIKKLEELIREAGKKVAELIKKEEE

Molecular target: T1, TRAF2, Q12933
Test: median log2 fold change of GCK-ALFA target abundance (FLAG IP / Myc IP barcode read proportion) (log2 ratio); each designed protein is fused to an ALFA-tag nanobody in HEK293 cells to bring the named protein to FLAG-tagged glucokinase (GCK); Myc marks an untargeted standard; higher = target protein stabilised (more abundant)
Conditions: target protein: 3xFLAG-MCP-GCK-ALFA reporter; HEK293 landing pad (RPLP)
In short: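 The readout is target abundance, the per-binder median log2 ratio of FLAG to Myc barcode read proportions. It came from HEK293 landing-pad cells carrying a recombined ALFA-nanobody-fused binder library, induced with 2 μg mL^−1 doxycycline and transfected with a plasmid for a FLAG-tagged target and a Myc-tagged standard. After 48 h, lysates were immunoprecipitated with anti-FLAG and anti-Myc, and circular RNA barcodes were reverse transcribed, amplified and sequenced. Each barcode needed a proportion of at least 10^−7 in both replicates and each binder at least 3 barcodes per replicate, a pseudocount of 10^−6 was added, and the replicates were pooled.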

Row | Binder | median log2 fold change
1 | B1 | 0.0144
2 | B2 | -1.13
3 | B3 | 0.292
4 | B4 | 0.0972
5 | B5 | -0.724
6 | B6 | 0.252
7 | B7 | -0.948
8 | B8 | -0.102
9 | B9 | 0.172
10 | B10 | 0.397
11 | B11 | 0.546
12 | B12 | -0.315
13 | B13 | 0.0913
14 | B14 | 0.117
15 | B15 | 0.283
16 | B16 | -0.0157
17 | B17 | 0.259
18 | B18 | 0.208
19 | B19 | -0.138
20 | B20 | 0.111
21 | B21 | 0.285
22 | B22 | 0.0677
23 | B23 | -0.448
24 | B24 | 0.361
25 | B25 | 0.283
26 | B26 | 0.226
27 | B27 | 0.328
28 | B28 | 0.237
29 | B29 | -0.304
